Paper PMC6919601, “Identification of Plasmodium dipeptidyl aminopeptidase allosteric inhibitors by high throughput screening” (PLoS ONE, 2019)
The campaign covered roughly 110,000 compounds. About 230 (0.21%) showed an effect of 50% or more. Some of the results follow.

Target: DPAP1 (Plasmodium falciparum, UniProt Q8IIJ9)
Test: primary screen, percent inhibition; read by cleavage of a fluorogenic dipeptide substrate; higher = more effect of the substance
Parameters: species or system P. falciparum D10 trophozoite lysates; single well
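Further: 30 min substrate incubation versus DMSO and 10 µM JCP410 controls.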

Sequence of DPAP1 (Q8IIJ9 whole entry, looked up): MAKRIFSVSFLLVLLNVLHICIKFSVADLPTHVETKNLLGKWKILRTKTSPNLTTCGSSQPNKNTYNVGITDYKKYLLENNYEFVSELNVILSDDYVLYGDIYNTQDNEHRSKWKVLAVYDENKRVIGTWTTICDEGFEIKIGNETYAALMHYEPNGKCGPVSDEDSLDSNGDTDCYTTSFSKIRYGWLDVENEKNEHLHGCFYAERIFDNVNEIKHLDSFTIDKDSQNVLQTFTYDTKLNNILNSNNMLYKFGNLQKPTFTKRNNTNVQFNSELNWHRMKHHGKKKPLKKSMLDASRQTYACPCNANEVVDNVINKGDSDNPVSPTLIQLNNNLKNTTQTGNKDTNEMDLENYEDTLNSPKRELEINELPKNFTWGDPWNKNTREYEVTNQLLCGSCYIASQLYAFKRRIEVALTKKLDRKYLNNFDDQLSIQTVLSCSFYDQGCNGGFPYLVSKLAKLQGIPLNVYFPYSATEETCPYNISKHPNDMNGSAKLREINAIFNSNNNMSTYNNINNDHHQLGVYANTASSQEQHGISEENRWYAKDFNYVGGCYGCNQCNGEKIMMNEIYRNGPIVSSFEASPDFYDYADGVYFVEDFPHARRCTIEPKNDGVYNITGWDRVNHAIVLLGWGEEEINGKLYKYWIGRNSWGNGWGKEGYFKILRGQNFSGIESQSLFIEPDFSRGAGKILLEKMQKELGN

Question: How did the “% Inhibition @ 10 uM” value turn out when `Fc1ccc(SCCc2ccccn2)cc1` was run?
Answer: The value was -3.48%.

Question: With `CC1=C(C(=O)Nc2ccccn2)C(c2ccccc2)n2nc(-c3ccccc3)nc2N1` (stereo not shown) as the molecule, how does the “% Inhibition @ 10 uM” value read?
Answer: Its value is -2.9%.

Question: `Cc1nc2sc(C(=O)Nc3ccccc3)c(N)c2c(C)c1C` was tested. Which “% Inhibition @ 10 uM” value did it give?
Answer: Its value is 2.7%.

Question: For `CC1=C(c2ccc(C)c(C)c2)S(=O)(=O)N=C1NCc1ccc(OC(C)C)cc1`, which “% Inhibition @ 10 uM” value is on record?
Answer: The value was -2.85%.

Question: `CC1=C(C(=O)Nc2ccccc2C)C(c2ccc(Cl)cc2Cl)NC(=O)N1` (stereo not shown) was tested. Which “% Inhibition @ 10 uM” value did it give?
Answer: The value was 4.61%.

Question: `COC(=O)C1=C(C)NC(=O)/C1=C\c1cccc(Br)c1` was tested. Which “% Inhibition @ 10 uM” value did it give?
Answer: Its value is -5.26%.

Question: `CCCCO/C(O)=C1\C(C)=NC2=C(C(=O)CC(C)(C)C2)C1c1cccc(F)c1` (stereo not shown) was tested. Which “% Inhibition @ 10 uM” value did it give?
Answer: The value was 6.08%.

Question: With `Cc1ccc(CN(C(=O)c2ccccc2F)C2CCS(=O)(=O)C2)o1` (stereo not shown) as the molecule, how does the “% Inhibition @ 10 uM” value read?
Answer: The value was 0.569%.

Question: Which “% Inhibition @ 10 uM” value does the source give for `O=C(CCC1CCCCC1)Nc1ccc2c(c1)OCCO2` here?
Answer: Its value is -2.82%.

Question: With `CCOC(=O)c1c(NC(=O)c2cc3n(n2)C(C(F)(F)F)CC(c2ccco2)N3)sc(C)c1C` (stereo not shown) as the molecule, how does the “% Inhibition @ 10 uM” value read?
Answer: The value was -5.7%.

Question: `OCCNCCc1c[nH]c2ccccc12` was tested. Which “% Inhibition @ 10 uM” value did it give?
Answer: Its value is -0.0372%.

Question: How did the “% Inhibition @ 10 uM” value turn out when `CC1CCN(C(=O)CNC(=S)N2CC3CC(C2)c2cccc(=O)n2C3)CC1` (stereo not shown) was run?
Answer: Its value is 5.89%.

Question: For `COC(=O)c1cc2ccc(C)cc2[nH]1`, which “% Inhibition @ 10 uM” value is on record?
Answer: The value was -1.7%.

Question: How did the “% Inhibition @ 10 uM” value turn out when `COc1ccc(C2=N/C(=C\c3cccs3)C(=O)O2)cc1` was run?
Answer: The value was 11.6%.

Question: How did the “% Inhibition @ 10 uM” value turn out when `CC(=O)Nc1ccc(NC(=O)c2cc3c(C)nn(-c4ccccc4)c3s2)cc1C` was run?
Answer: The value was -10.4%.

Question: Which “% Inhibition @ 10 uM” value does the source give for `CC1(C)SCC2C(=O)N3C(CSC3(C)C)C(=O)N21` (stereo not shown) here?
Answer: Its value is -4%.

Question: For `O=C1CSC(c2cccc([N+](=O)[O-])c2)N1c1ccccc1` (stereo not shown), which “% Inhibition @ 10 uM” value is on record?
Answer: The value was 4.54%.

Question: With `COc1cc(CNC(C)(C)CO)cc(Br)c1OCc1ccccc1` as the molecule, how does the “% Inhibition @ 10 uM” value read?
Answer: Its value is 0.361%.

Question: Which “% Inhibition @ 10 uM” value does the source give for `CCN1C(=O)N/C(=C\c2cc(C)n(-c3ccccc3)c2C)C1=O` here?
Answer: Its value is 3.81%.

Question: `O=C(Nc1cccc(Br)c1)C1CC(=O)N(C2CCCCC2)C1` (stereo not shown) was tested. Which “% Inhibition @ 10 uM” value did it give?
Answer: Its value is 0.0792%.

Question: For `CN(C)c1ccc(/C=C(/C(=O)c2ccccc2)c2nc3ccccc3[nH]2)cc1`, which “% Inhibition @ 10 uM” value is on record?
Answer: The value was -7.19%.

Question: With `Cc1nn(CC(=O)N2CCC3(CC2)OCCO3)c(=O)c2c1sc1ccccc12` as the molecule, how does the “% Inhibition @ 10 uM” value read?
Answer: The value was 0.697%.

Question: Which “% Inhibition @ 10 uM” value does the source give for `COc1ccc(/C=C/C(=O)Nc2ncc(Cc3ccc(Br)cc3)s2)cc1` here?
Answer: Its value is 4.95%.

Question: How did the “% Inhibition @ 10 uM” value turn out when `O=C(NCc1cccs1)C1C2C=CC3(CN(CCCN4CCOCC4)C(=O)C13)O2` (stereo not shown) was run?
Answer: Its value is 4.01%.

Question: `COc1cc(Br)cc(/C=C2\SC(Nc3ccc(F)cc3)=NC2=O)c1O` was tested. Which “% Inhibition @ 10 uM” value did it give?
Answer: Its value is 45.8%.

Question: `CC(C)C[C@@H](C(=O)NCC#N)N(C)C(=O)c1ccc(-c2csc(-c3cccnc3)n2)cc1` was tested. Which “% Inhibition @ 10 uM” value did it give?
Answer: Its value is -7.36%.

Question: `CC1(C)CC(=O)C2=C(C1)OC(N)=C(C#N)C2CCc1ccccc1` (stereo not shown) was tested. Which “% Inhibition @ 10 uM” value did it give?
Answer: The value was -3.46%.

Question: `Cc1ccc(Sc2cc(C(=O)NC3CC3)c3ccccc3n2)cc1` was tested. Which “% Inhibition @ 10 uM” value did it give?
Answer: Its value is 0.457%.

Question: How did the “% Inhibition @ 10 uM” value turn out when `CC1=CC2=NC(=O)/C(=C\c3cccn3CCOc3cc(C)cc(C)c3)C(=N)N2O1` was run?
Answer: Its value is 2%.

Question: Which “% Inhibition @ 10 uM” value does the source give for `Cc1cccc(-n2nnc(-c3nsc(NC(=O)c4cccc(F)c4)n3)c2C)c1C` here?
Answer: Its value is 3.99%.

Question: Which “% Inhibition @ 10 uM” value does the source give for `CCN(CC)c1ccc(/C=C2/NC(=O)N(c3ccccc3)C2=O)cc1` here?
Answer: Its value is -4.38%.

Question: For `Cc1nc2cccnc2n1-c1ccc(CC(=O)NCCCN2CCOCC2)cc1`, which “% Inhibition @ 10 uM” value is on record?
Answer: The value was -8.08%.

Question: How did the “% Inhibition @ 10 uM” value turn out when `CCCNC(=O)C1=NN(C)C2c3ccccc3SCC12` (stereo not shown) was run?
Answer: The value was 2.74%.

Question: How did the “% Inhibition @ 10 uM” value turn out when `Cc1ccc(-n2nc(C)c3c(C)c(CCC(=O)NCC4CCCO4)c(C)nc32)cc1` (stereo not shown) was run?
Answer: Its value is 0.953%.

Question: With `CC(COc1ccc2c(c1)OCO2)NC(=O)Cn1ncc2ccccc2c1=O` (stereo not shown) as the molecule, how does the “% Inhibition @ 10 uM” value read?
Answer: The value was 3.69%.

Question: How did the “% Inhibition @ 10 uM” value turn out when `CCCSC1=C(C#N)C(c2ccc(Cl)cc2)CC(=O)N1` (stereo not shown) was run?
Answer: Its value is 4.33%.

Question: With `CCOC(=O)C1CCN(Cc2ccc(Br)cc2)CC1` as the molecule, how does the “% Inhibition @ 10 uM” value read?
Answer: Its value is -0.192%.

Question: `CN(C)c1ccc(-n2nc3ccc(NC(=O)c4ccc(Br)o4)cc3n2)cc1` was tested. Which “% Inhibition @ 10 uM” value did it give?
Answer: The value was 2.01%.

Question: How did the “% Inhibition @ 10 uM” value turn out when `CC1OC(Nc2cccc(O)c2)C(O)C(O)C1O` (stereo not shown) was run?
Answer: Its value is 4.54%.

Question: How did the “% Inhibition @ 10 uM” value turn out when `COC(=O)C1=C(C)NC(=O)CC1c1ccccc1F` (stereo not shown) was run?
Answer: The value was 0.354%.

Question: How did the “% Inhibition @ 10 uM” value turn out when `COC(=O)c1sccc1S(=O)(=O)N1CC=C(c2ccccc2)CC1` was run?
Answer: Its value is -7.71%.

Question: How did the “% Inhibition @ 10 uM” value turn out when `CC(=O)c1ccc(OC2OC3COC(c4cccc(Br)c4)OC3C(O)C2O)cc1` (stereo not shown) was run?
Answer: Its value is 0.032%.

Question: How did the “% Inhibition @ 10 uM” value turn out when `COc1ccc(C(=O)NC(C)c2ccccc2)cc1` (stereo not shown) was run?
Answer: The value was -1.76%.

Question: With `O=C1NC(=O)C(Cc2ccc(F)cc2)C(=O)N1` as the molecule, how does the “% Inhibition @ 10 uM” value read?
Answer: Its value is -0.807%.

Question: How did the “% Inhibition @ 10 uM” value turn out when `O=C(NC1CC1)c1ccc2c(c1)C1C3CCC(C3)C1C(c1ccccc1)N2` (stereo not shown) was run?
Answer: The value was 23.8%.

Question: With `N#Cc1ccc(NC(=O)C2CC2(c2ccccc2)c2ccccc2)cc1` (stereo not shown) as the molecule, how does the “% Inhibition @ 10 uM” value read?
Answer: Its value is -1.45%.

Question: For `Cc1ccc(S(=O)(=O)NC(C)C(=O)Nc2cccc(F)c2)cc1` (stereo not shown), which “% Inhibition @ 10 uM” value is on record?
Answer: Its value is -3.43%.

Question: Which “% Inhibition @ 10 uM” value does the source give for `CC(C)CNS(=O)(=O)c1ccc(CCC(=O)NC2CCCC2)cc1` here?
Answer: Its value is -6.08%.

Question: Which “% Inhibition @ 10 uM” value does the source give for `CCOc1cc(CNc2nc[nH]n2)ccc1OCC(=O)NC(C)(C)C` here?
Answer: Its value is -3.23%.

Question: `Cc1ccc(SC(C)C(=O)Nc2ccc(F)cc2)cc1` (stereo not shown) was tested. Which “% Inhibition @ 10 uM” value did it give?
Answer: The value was -2.77%.

Question: Which “% Inhibition @ 10 uM” value does the source give for `CN(Cc1ccccc1)C(=O)Cn1nnc2sc(-c3ccccc3)cc2c1=O` here?
Answer: The value was -0.946%.

Question: With `Cc1ccccc1-c1nc(CS(=O)(=O)CC(=O)NCCCN2CC(C)CC(C)C2)c(C)o1` (stereo not shown) as the molecule, how does the “% Inhibition @ 10 uM” value read?
Answer: Its value is 3.19%.

Question: With `CCCCNC(=O)C1c2cc(OC)c(OC)cc2C(=O)N(C)C1c1cccs1` (stereo not shown) as the molecule, how does the “% Inhibition @ 10 uM” value read?
Answer: Its value is 3.33%.

Question: With `COc1ccc(C(=O)Nc2nc3ccccc3[nH]2)cc1OC` as the molecule, how does the “% Inhibition @ 10 uM” value read?
Answer: Its value is -2.16%.

Question: For `COc1ccc2c(c1)c1ncn(CCc3ccc(Cl)cc3)c(=O)c1n2C`, which “% Inhibition @ 10 uM” value is on record?
Answer: The value was -5.36%.

Question: Which “% Inhibition @ 10 uM” value does the source give for `O=C(O)c1ccc(S(=O)(=O)c2ccc(O)cc2)cc1` here?
Answer: Its value is -9.31%.

Question: With `O=C1NC(=O)/C(=C/c2cccc(Br)c2)S1` as the molecule, how does the “% Inhibition @ 10 uM” value read?
Answer: Its value is 3.9%.

Question: For `CCN1CCN(C(=O)/C(=C/c2cccs2)NC(=O)c2ccc(C)c(C)c2)CC1`, which “% Inhibition @ 10 uM” value is on record?
Answer: The value was 2.26%.

Question: For `COc1ccccc1C1CC(c2ccc(C(C)C)cc2)Nc2ncnn21` (stereo not shown), which “% Inhibition @ 10 uM” value is on record?
Answer: Its value is -3.23%.

Question: With `CCOC(=O)c1[nH]c(C)c(C(=O)NCCc2sccc2C)c1C` as the molecule, how does the “% Inhibition @ 10 uM” value read?
Answer: Its value is 0.655%.

Question: `O=C(COc1ccc2ccccc2c1Br)N1CCOCC1` was tested. Which “% Inhibition @ 10 uM” value did it give?
Answer: The value was 6.19%.

Question: For `CC1(O)N(CCCCCCN2C(=O)OC3(CCCCC3)C2(C)O)C(=O)OC12CCCCC2` (stereo not shown), which “% Inhibition @ 10 uM” value is on record?
Answer: Its value is -3.19%.

Question: For `C=CCNC(=O)c1cccc2c1-c1ccccc1C2=O`, which “% Inhibition @ 10 uM” value is on record?
Answer: The value was 6.73%.

Question: With `CCOC(=O)C1CCN(Cc2ccc(C)cc2C)CC1` as the molecule, how does the “% Inhibition @ 10 uM” value read?
Answer: The value was 1.63%.
